Measurements: PubChem BioAssay AID1345083 (National Center for Advancing Translational Sciences (NCATS), 2018)
In all, about 94,000 compounds went through this assay and about 6,200 (6.6%) were called active. This list was built around the results that the source calls inconclusive (neither active nor inactive); the mix of calls is not that of the screen. Calls come from the whole dose curve; as a rule, active = well fitted inhibition curve with a large enough effect; inconclusive = small, poorly fitted or top-dose-only effect; inactive = flat fitted curve, though single readings scatter. Where the call is inconclusive, the potency comes from a doubtful curve fit.

Assay: Cytotoxic Profiling in HEK 293 Cell Line of Diverse Libraries Using Quantitative High-Throughput Screening; note: nearly all actives have a fitted effect of over 60% in size
Conditions: HEK 293 viability, ATP luminescence (CellTiter-Glo), 48-72 h; series mostly up to 115 µM
In short: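 HEK 293 cells at 250 cells/well were exposed to compounds by pintool transfer for 48 or 72 hr at 37 degree Celsius, 5% CO2. Viability was read as ATP-coupled luminescence with CellTiter-Glo after 10 min at room temperature.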
Potency is the fitted concentration of half-maximal effect; tags give direction and shape of the fitted curve.

Row | SMILES | Potency
1 | O=C(NCc1cccc(Cl)c1)c1ccc(N2CC3CC(C2)[C@H]2CCCC(=O)N2C3)nc1 (some centres not stated) | inconclusive: 100 µM [inhibitor, single point]
2 | O=C(Nc1ccc2c(c1)OCCO2)N1CC(c2nc(CCOCC3CC3)no2)C1 | inconclusive: 89.1 µM [inhibitor, single point]
3 | CN1CC2(CCN(C3CCCC3)CC2)CC1C(=O)N1CCOCC1 (configuration not stated) | inactive
4 | CCOC(=O)c1nccn1Cc1nc(-c2sccc2C)oc1C | inconclusive: 50.1 µM [inhibitor, partial curve, poor fit]
5 | CCn1nccc1C(=O)N1CCc2nc(OCCOC)ccc2C1 | inconclusive: 89.1 µM [inhibitor, single point]
6 | CN1CCC(N2C[C@@H]3C[C@H]2C(=O)N(Cc2cccnc2)c2ccccc2O3)CC1 | inactive
7 | O=C(NC1CCCN(c2cc(-c3ccccc3)[nH]n2)C1)c1ccc(Br)o1 (configuration not stated) | inconclusive: 44.7 µM [inhibitor, partial curve, poor fit]
8 | Cc1ccc(NC(=O)N2CCCC(c3noc(COc4ccccc4)n3)C2)c(C)c1 (configuration not stated) | inconclusive: 79.4 µM [inhibitor, partial curve]
9 | CN1CCC2(Cc3ccccc3CN(C(=O)c3cccc(Cl)c3)C2)C1 (configuration not stated) | inconclusive: 79.4 µM [inhibitor, partial curve, poor fit]
10 | CCN1c2cc(C(=O)Nc3ccccc3C(=O)OC)ccc2C(=O)N2CCCCCC21 (configuration not stated) | inconclusive: 39.8 µM [inhibitor, partial curve, poor fit]
11 | c1ccc(-c2noc(-c3cncnc3N3CCSCC3)n2)cc1 | active: 44.7 µM
12 | CC(C(=O)NCCc1ccccc1)N1C(=O)COc2ccc(C(=O)COc3cccc(Cl)c3)cc21 (configuration not stated) | inconclusive: 39.8 µM [inhibitor, partial curve]
13 | Cc1ccc(CN2C[C@@H]3C(=O)N(Cc4ccc5c(c4)OCO5)C(=O)[C@@H]3C2)cc1C | inconclusive: 79.4 µM [inhibitor, partial curve, poor fit]
14 | O=C1NCN(Cc2ccc(Cl)cc2)C12CCN(Cc1ccccc1)CC2 | inconclusive: 8.91 µM [inhibitor, full curve, poor fit]
15 | COC1CCN(C(=O)c2cnc3c(c2)N(Cc2ccccc2)CCC3)CC1 | inactive
16 | COCCN1C(=O)c2cccn2CC1CNC(=O)CC1CCCC1 (configuration not stated) | inconclusive: 50.1 µM [inhibitor, partial curve, poor fit]
17 | Cc1cc(C)cc(-c2ccc(CN3CCCC(NC(=O)Cc4ccccn4)C3)cc2)c1 (configuration not stated) | inconclusive: 31.6 µM [inhibitor, full curve, poor fit]
18 | CCCCN1C(=O)c2ccccc2C(C(=O)NC2CC2)C12CCCCC2 (configuration not stated) | inconclusive: 35.5 µM [inhibitor, partial curve, poor fit]
19 | Cc1cccc(-c2cccc(CN3CCCC(C(=O)NCCCc4ccccc4)C3)c2)c1 (configuration not stated) | active: 44.7 µM
20 | O=C(c1ccc(Cl)cc1)N1CCC(N2CCCCC2=O)CC1 | inactive
21 | COc1cccc(NC(=O)c2ccnc(-c3nnc4ccc(N5CCN(C)CC5)nn34)c2)c1 | inconclusive: 79.4 µM [inhibitor, single point]

Row | SMILES | Potency
22 | Cc1ccc(C(=O)N2CCC3(CC2)SCC(=O)N3c2ccc(Cl)cc2)cc1[N+](=O)[O-] | inactive
23 | COC[C@H](C)NC(=O)c1cccc(S(=O)(=O)N(C)Cc2cnccn2)c1 | inactive
24 | CCn1ccnc1CN1CCCC(CNC(=O)c2ccc(-c3ccccc3)cc2)C1 (configuration not stated) | inconclusive: 35.5 µM [inhibitor, partial curve, poor fit]
25 | CC(=O)Nc1ccc(S(=O)(=O)N2CCCC(N(C)CCc3ccccn3)C2)cc1 (configuration not stated) | inconclusive: 22.4 µM [inhibitor, full curve, poor fit]
26 | CCOc1ccccc1C1NC(=O)N(CC(=O)Nc2ccc3c(c2)CCC3)C2=C1C(=O)OC2 (configuration not stated) | inconclusive: 50.1 µM [inhibitor, partial curve, poor fit]
27 | N#Cc1cc(CN2CCCC(C(=O)Nc3cccc(-c4ccc(F)cc4)c3)C2)c[nH]1 (configuration not stated) | active: 25.1 µM
28 | O=C1C(Oc2ccc(F)cc2)C2(CCCCC2)N1Cc1ccc(F)cc1 (configuration not stated) | active: 39.8 µM
29 | Cc1cc(C)cc(-c2[nH]nc3ncc(-c4ccsc4)nc23)c1 | inconclusive: 63.1 µM [inhibitor, partial curve, poor fit]
30 | O=C(Cc1cccs1)N1CCCCCC1c1nnc(-c2ccccc2)o1 (configuration not stated) | inconclusive: 89.1 µM [inhibitor, single point]
31 | O=C(c1ccsc1)N1CC(c2noc(C3CCCN3CC3CC3)n2)C1 (configuration not stated) | inactive
32 | Nc1nc(C2CC(NC(=O)Cc3ccc4c(c3)OCO4)C2)cc(=O)[nH]1 (configuration not stated) | inactive
33 | CCCN1CC(Oc2ccc(-c3noc(C4CC4)n3)cc2)C1 | inconclusive: 89.1 µM [inhibitor, single point]
34 | CC(CNC(=O)c1noc(-c2ccc3c(c2)OCO3)n1)c1ccccc1 (configuration not stated) | inactive
35 | Cc1cccc(S(=O)(=O)N2CCCN(C(=O)C3CC3)c3ccccc32)c1 | inconclusive: 31.6 µM [inhibitor, partial curve]
36 | COc1ccc(-c2cc(C(=O)N3CCCC(C)C3)c3cnn(C)c3n2)cc1 (configuration not stated) | inconclusive: 89.1 µM [inhibitor, single point]
37 | CC(=O)N1CC(CN2C(=O)c3c(c(C)nn3-c3ccccc3)C2C2CC2)C1 (configuration not stated) | inconclusive: 50.1 µM [inhibitor, partial curve, poor fit]
38 | CC[C@@H]1[C@@H](NC(=O)CCc2c(C)nc3ncnn3c2C)[C@@H]2CCO[C@H]12 | inactive
39 | COCCNc1ncc(-c2ccccc2)c2c1OCC2 | inconclusive: 89.1 µM [inhibitor, partial curve]
40 | COc1ccc(C2(C(=O)NC3CCCc4c3[nH]c3c(Cl)cccc43)CCOCC2)cc1 (configuration not stated) | active: 44.7 µM
41 | COCCN1CCCCCC(O)c2cc(C(=O)NCc3nc4ccccc4n3C)ccc21 (configuration not stated) | inconclusive: 89.1 µM [inhibitor, single point]
42 | O=C(NCCn1ccn2nc(-c3ccc(F)cc3)cc2c1=O)c1cccs1 | inactive
